Binding signal data for 172 sequences are collected here from publication PMC10668032.

The list shows a part of the results. At the low end of the ranking the order means little.

The test deals with SIX1 homeodomain (reference allele) (UniProt Q15475). As to the kind of experiment: universal protein binding microarray. The conditions noted are these: Universal all-10-mer PBM (8x60K, AMADID 030236), 300 nM GST-tagged protein, Alexa Fluor 488 anti-GST; buffer, salt, pH and temperature not stated; high values mean tight binding; most listed sequences are background and not binding sites; double strand, one strand shown.
Take ATTCTTCG: the binding signal came out at 0.0829 E-score.

On to ACATGCAC, for which the binding signal turned out to be 0.0164 E-score.

With CTCGACGA, the binding signal was -0.0931 E-score.

Turning to GGTGCGTA, the binding signal stood at 0.0415 E-score.

With CGAAGTAG, the binding signal was -0.152 E-score.

Regarding CTCGAAGC, the binding signal was -0.188 E-score.

Take ATTGATTC: the binding signal stood at 0.102 E-score.

Regarding ATCAAATA, the binding signal is 0.239 E-score.

GGCCTAAA: the binding signal is -0.249 E-score.

Turning to TCCCGCCA, the binding signal is -0.0222 E-score.

Take GAGGCCGA: the binding signal was -0.236 E-score.

AGACAGCA: the binding signal was found to be 0.00034 E-score.

Turning to ATATAAAC, the binding signal turned out to be 0.0704 E-score.

Turning to ATACTCGA, the binding signal is 0.249 E-score.

With CTAAGAAC, the binding signal was -0.0504 E-score.

With AGATCAGC, the binding signal was found to be 0.273 E-score.

Regarding AATGCATG, the binding signal is -0.0336 E-score.

In the case of AATCTGGG, the binding signal was 0.132 E-score.

Turning to ATCGAAGA, the binding signal turned out to be 0.293 E-score.

As for CTACGGAC, the binding signal is -0.255 E-score.

With CCATGTAA, the binding signal worked out at 0.0612 E-score.

As to CCAAAGGG, the binding signal worked out at 0.0408 E-score.

For the sequence GCATGGGC, the binding signal is -0.135 E-score.

CGTCAACC: the binding signal is -0.262 E-score.

For TATAGGCA, the binding signal was found to be 0.000955 E-score.

As to GGCAGATA, the binding signal stood at 0.216 E-score.

Regarding CCTGGGAC, the binding signal is -0.0923 E-score.

For the sequence AGATTATG, the binding signal was determined as 0.229 E-score.

On to AACACTGG, for which the binding signal was 0.029 E-score.

As to AGATATAC, the binding signal came to 0.38 E-score.

As for ACTAAGCG, the binding signal was -0.0108 E-score.

Take ATAAAACG: the binding signal was -0.00883 E-score.

Consider GTTGTGAA, for which the binding signal is -0.142 E-score.

For the sequence CCTGTTCA, the binding signal was -0.0491 E-score.

GACCGCAC: the binding signal is -0.201 E-score.

With GTAGGTTA, the binding signal is -0.141 E-score.

In the case of CATTCTGA, the binding signal was -0.0505 E-score.

Take GGGTCTAC: the binding signal turned out to be 0.0459 E-score.

As for AGGTGTGG, the binding signal came to 0.186 E-score.

For the sequence GTGCCAAA, the binding signal was -0.165 E-score.

In the case of TCTGATCA, the binding signal is 0.148 E-score.

Take ACGTTTGC: the binding signal is -0.193 E-score.

Consider CGCTTAAC, for which the binding signal was -0.221 E-score.

As for ACCTTAAA, the binding signal is -0.158 E-score.

For the sequence ATTCTCAG, the binding signal is -0.106 E-score.

Turning to GTCCCATA, the binding signal was -0.126 E-score.

Turning to CCGAGTAC, the binding signal came to 0.0443 E-score.

Consider ACGTAACT, for which the binding signal is -0.158 E-score.

On to ACGTGGGG, for which the binding signal was -0.101 E-score.

CCCACGGG: the binding signal is -0.214 E-score.

Consider CAAAGGCA, for which the binding signal was -0.235 E-score.

As for AGTGCGTG, the binding signal is -0.0573 E-score.

As for TGAGTTAA, the binding signal was -0.151 E-score.

For CACCATGG, the binding signal stood at 0.16 E-score.

As for GAAACAGC, the binding signal is -0.203 E-score.

With CTTAAGTA, the binding signal was -0.0644 E-score.

Take ACCCATCA: the binding signal is -0.0971 E-score.

As for CACGTCTG, the binding signal was -0.122 E-score.

With AATAGTAG, the binding signal amounted to 0.0339 E-score.

Take ACCAGACT: the binding signal is -0.0538 E-score.

As to GGTTTTGA, the binding signal was -0.0912 E-score.

Turning to CGGCACTA, the binding signal was -0.0757 E-score.

Regarding ATCGATGA, the binding signal is 0.135 E-score.

As for CCAGCCCG, the binding signal was -0.0291 E-score.

Turning to CTCCTGTC, the binding signal is -0.0964 E-score.

Take CGCTGCAG: the binding signal was -0.166 E-score.

On to CAAGCGTC, for which the binding signal is -0.0426 E-score.

On to CTTTGTGC, for which the binding signal was -0.2 E-score.

Regarding TACTGAGA, the binding signal is 0.0485 E-score.

Turning to AAGCGGAC, the binding signal came out at 0.0304 E-score.

For AGTCACGA, the binding signal was -0.153 E-score.

Turning to ACGGTATA, the binding signal came to 0.309 E-score.

Turning to CCTGAAAC, the binding signal was -0.0705 E-score.

In the case of ATTCGCCG, the binding signal was -0.0021 E-score.

In the case of CGTCCTAG, the binding signal is -0.289 E-score.

As to CTGCCCAA, the binding signal is -0.0899 E-score.

Consider AAAACGAA, for which the binding signal was -0.171 E-score.

In the case of CAGGTCAC, the binding signal was -0.251 E-score.

Consider GATACGAC, for which the binding signal amounted to 0.382 E-score.

For GCGACCCA, the binding signal was -0.127 E-score.

As for CATCGTGC, the binding signal is -0.211 E-score.

Consider ATAAGTAG, for which the binding signal turned out to be 0.0134 E-score.

As for GCCGATGA, the binding signal is 0.0868 E-score.

As for GCACGGGC, the binding signal was -0.119 E-score.

For AACTAAGA, the binding signal stood at 0.0432 E-score.

For CATCGTCA, the binding signal was found to be 0.0178 E-score.

Take ATATAGAA: the binding signal amounted to 0.222 E-score.

As for AGTGGCCG, the binding signal was -0.146 E-score.

With AATAATCT, the binding signal turned out to be 0.186 E-score.

In the case of GAACACTA, the binding signal is -0.051 E-score.

For CGCTTGGA, the binding signal was found to be 0.101 E-score.

Regarding ACGCAGTC, the binding signal was -0.122 E-score.

ATGCTAGC: the binding signal came to 0.00374 E-score.

On to GTCGCACA, for which the binding signal was -0.219 E-score.

For TGGTTACA, the binding signal is -0.0768 E-score.

In the case of CTTTTAAA, the binding signal was -0.216 E-score.

In the case of GGTCAACC, the binding signal is -0.0588 E-score.

As to CGACCTAA, the binding signal was -0.0576 E-score.

For the sequence CCACGAAC, the binding signal was -0.0076 E-score.

Take CGTTCCAG: the binding signal was -0.127 E-score.

CCGGCAGA: the binding signal is -0.2 E-score.

As to CCGATTGA, the binding signal worked out at 0.144 E-score.

With GCCGGCCC, the binding signal is -0.268 E-score.

With ATGTGAAC, the binding signal is -0.0746 E-score.

Turning to ACTTGCCG, the binding signal is -0.327 E-score.

As to AAGCCTAA, the binding signal is -0.229 E-score.

Regarding ATAGGCCC, the binding signal was 0.1 E-score.

With ATCCCAGC, the binding signal is 0.221 E-score.

Take GACGCGTC: the binding signal is -0.124 E-score.

Regarding ACTCGGTA, the binding signal was 0.0753 E-score.

On to AAGAAGCA, for which the binding signal was -0.197 E-score.

As for ATACGAAC, the binding signal is 0.0751 E-score.

As for CCCCCCCC, the binding signal was -0.0883 E-score.

For CGTTTTAA, the binding signal is -0.0975 E-score.

For AAACAGTC, the binding signal is -0.334 E-score.

AACCAACA: the binding signal is 0.0225 E-score.

On to CTAGGCCC, for which the binding signal was -0.186 E-score.

For the sequence GACTCCGC, the binding signal is -0.172 E-score.

Consider ACCACGCG, for which the binding signal was -0.0453 E-score.

GTGATTTA: the binding signal was -0.0365 E-score.

Regarding ATCAACAA, the binding signal amounted to 0.222 E-score.

As to ATGGATAA, the binding signal came to 0.212 E-score.

For GTAAGCGA, the binding signal is 0.00135 E-score.

AGTTCAAA: the binding signal is -0.149 E-score.

Take CGACGGAC: the binding signal was -0.205 E-score.

Consider AGGCTTTC, for which the binding signal was -0.0855 E-score.

For GTAATTAA, the binding signal was -0.0167 E-score.

On to CCGGGAAA, for which the binding signal is 0.0936 E-score.

Take TAAAGCAA: the binding signal is -0.0823 E-score.

Turning to CGTCCAAG, the binding signal is -0.199 E-score.

In the case of CACGCTAG, the binding signal is -0.13 E-score.

Regarding CTATGCCA, the binding signal was -0.16 E-score.

Turning to GATACGCC, the binding signal was found to be 0.452 E-score.

On to ATAACTAC, for which the binding signal turned out to be 0.0577 E-score.

Consider CTAGTAGC, for which the binding signal was -0.0685 E-score.

In the case of GTGTCATA, the binding signal was 0.369 E-score.

In the case of GCTCCTAA, the binding signal is -0.117 E-score.

On to CCCCACAA, for which the binding signal is -0.0493 E-score.

In the case of GGGACAAC, the binding signal was -0.228 E-score.

Regarding CAAGTCGC, the binding signal was -0.123 E-score.

Take GGGCACGA: the binding signal is -0.029 E-score.

As to AAGCCCTT, the binding signal is -0.247 E-score.

Turning to AACTTGGT, the binding signal is -0.00434 E-score.

With ATTCCACA, the binding signal is 0.0514 E-score.

Turning to CCCTAAAG, the binding signal was -0.0576 E-score.

As to CCGGAGAC, the binding signal turned out to be 0.184 E-score.

As to GGTTGAGA, the binding signal amounted to 0.139 E-score.

Turning to CAATGGCG, the binding signal was -0.125 E-score.

On to AAAGGGTC, for which the binding signal is -0.162 E-score.

Regarding GGTCGGAA, the binding signal was -0.000905 E-score.

For GCCTGGAC, the binding signal is -0.0674 E-score.

For CCTGTCAA, the binding signal was -0.205 E-score.

As to AGACAGCT, the binding signal was -0.231 E-score.

Regarding AAGAAACT, the binding signal is -0.294 E-score.

Take CGGTCCAG: the binding signal was -0.221 E-score.

Regarding CTACCCAA, the binding signal was -0.0934 E-score.

In the case of AAGGATGT, the binding signal is -0.188 E-score.

For TACATCAA, the binding signal was determined as 0.00626 E-score.

Take AGCACAGC: the binding signal is -0.158 E-score.

In the case of AATATTGT, the binding signal was -0.0381 E-score.

Take GATTTTGA: the binding signal is -0.077 E-score.

On to GCCGACGA, for which the binding signal was -0.17 E-score.

In the case of GGGTACCA, the binding signal is -0.0243 E-score.

Turning to ACCATGTA, the binding signal is 0.197 E-score.

With CGTGTAAA, the binding signal was -0.000385 E-score.

As to AAGGTCAT, the binding signal is -0.0666 E-score.

As to ATGCGCAC, the binding signal was -0.0945 E-score.

In the case of CGATTAGC, the binding signal was -0.147 E-score.

For the sequence CAGCCCTA, the binding signal was -0.0686 E-score.

Consider CCTTCTAG, for which the binding signal was determined as 0.0229 E-score.

For the sequence AAGACATT, the binding signal is -0.259 E-score.

As to ACGCTTGG, the binding signal was -0.0773 E-score.
